The nature of this assay: qHTS Assay for Lipid Storage Modulators (AID 1519). The conditions noted are these: Drosophila S3 cells, BODIPY lipid droplet/cell ratio, laser cytometry, cells loaded with oleic acid. The method in brief: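 Cells seeded at 5,000 per well were treated with compounds over a concentration series and loaded with oleic acid (400 uM, as added). Lipid droplet fluorescence (488 nm excitation, 500-530 nm channel) was read by laser-scanning cytometry and normalized to 20 uM Triacsin C.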

Setting [1] is: measured here: cell count channel max response.
Where [2] appears, read: measured here: cell number channel AC50.
[3] abbreviates: measured here: lipid (BODIPY) channel AC50.
Where [4] appears, read: measured here: lipid channel max response.

Each structure is given as a SMILES string. This is one part of the list. Shown are side measurements of this screen, not its main read-out; they come without a call. The list favours compounds with an active or inconclusive main result. The note in brackets gives the kind of curve behind each potency; many fits are weak.
Tags give direction and shape of the fitted curve.

For `CC[C@H](C)C(=O)O[C@H]1CCC=C2C=C[C@H](C)[C@H](CC[C@@H]3C[C@H](O)CC(=O)O3)[C@H]21`, the max response is, setting by setting: under setting [1], 52.4%; under setting [4], 55.3%. For the same compound, the AC50 under setting [2] was 17.8 µM [rising, partial curve, poor fit] and the AC50 under setting [3] was 20 µM [rising, partial curve, poor fit].
For the compound `COC(=O)/C=C\c1cc(O)ccc1O`, the max response came to 67.9% under setting [1] and 81.4% under setting [4]. The AC50 under setting [2] is 35.5 µM [rising, single point] and the AC50 under setting [3] was 31.6 µM [rising, partial curve, poor fit].
As for `COc1ccc(Oc2ncc3nc(-c4ccccc4)c(=O)n(Cc4cccs4)c3n2)cc1`, the max response by setting is: under setting [1], 23.6%; under setting [4], 28.1%. For the same compound, the AC50 runs as follows: under setting [2], 1.78 µM [rising, partial curve]; under setting [3], 0.0562 µM [rising, full curve, poor fit].
Turning to `CCOc1ccccc1O[C@@H](c1ccccc1)[C@@H]1CNCCO1`, the max response stood at 67.6% under setting [1] and 90.8% under setting [4]. Further, the AC50 under setting [2] was 15.8 µM [rising, partial curve, poor fit] and the AC50 under setting [3] was 5.01 µM [rising, full curve].
Regarding `Clc1ccccc1-c1nc(-n2ccnc2)c2ccccc2n1`, the max response by setting is: under setting [1], 43.2%; under setting [4], 53.5%. Also, the AC50 was 0.794 µM [rising, full curve] under setting [2] and 0.708 µM [rising, full curve] under setting [3].
With `CC(C)=CCCC(C)CCO` (stereo unspecified), the max response stood at 64% under setting [1] and 73.2% under setting [4]. In addition, the AC50 was 39.8 µM [rising, single point] under setting [2] and 39.8 µM [rising, single point] under setting [3].
Regarding `CN1CCc2cccc3c2[C@H]1Cc1ccc(O)c(O)c1-3`, the max response runs as follows: under setting [1], 80.5%; under setting [4], 107%. Moreover, the AC50 is 12.6 µM [rising, partial curve, poor fit] under setting [2] and 14.1 µM [rising, partial curve, poor fit] under setting [3].
Turning to `c1ccc(CNc2nc(-c3cccnc3)nc3ccccc23)cc1`, the max response by setting is: under setting [1], 24.5%; under setting [4], 31.6%. In addition, the AC50 under setting [2] was 3.55 µM [rising, partial curve] and the AC50 under setting [3] is 0.562 µM [rising, full curve].
Turning to `C[N+](C)(C)CCOC(=O)CCC(=O)OCC[N+](C)(C)C`, the max response under setting [1] is -7.42% and the max response under setting [4] was -10.8%. For the same compound, the AC50 reads like this: under setting [2], 8.91 µM [falling, full curve]; under setting [3], 8.91 µM [falling, full curve, poor fit].
In the case of `COCc1nc2c([nH]1)c(=O)n(C)c(=O)n2CC(C)C`, the max response reads like this: under setting [1], 70%; under setting [4], 94.1%. For the same compound, the AC50 is 17.8 µM [rising, partial curve, poor fit] under setting [2] and 17.8 µM [rising, partial curve, poor fit] under setting [3].
With `CN1CCN(c2ncc3nc(CCc4ccccc4)c(=O)n(Cc4ccc(F)cc4)c3n2)CC1`, the max response was -0.977% under setting [1] and 3.73% under setting [4]. Moreover, the AC50 under setting [2] was 5.01 µM [rising, partial curve, poor fit] and the half-maximal activity concentration (AC50) under setting [3] is 2.24 µM [rising, partial curve, poor fit].
In the case of `Cc1cc(/C=C/c2ccc3cc(N(C)C)ccc3[n+]2C)c(C)n1-c1ccccc1`, the max response by setting is: under setting [1], -89.4%; under setting [4], -103%. Further, the AC50 is 39.8 µM [falling, single point] under setting [2] and 39.8 µM [falling, single point] under setting [3].
In the case of `COc1cccc(-c2nccc(NCc3ccccc3)n2)c1`, the max response runs as follows: under setting [1], 12.4%; under setting [4], 15.8%. The AC50 is 2.24 µM [rising, partial curve] under setting [2] and 2.24 µM [rising, partial curve] under setting [3].
As to `Cc1cccc(CNc2ncncc2-c2cccnc2)c1`, the max response was determined as 13.9% under setting [1] and 20% under setting [4]. Moreover, the AC50 reads like this: under setting [2], 0.00501 µM [rising, full curve, poor fit]; under setting [3], 3.55 µM [rising, partial curve, poor fit].
`CC(C)(C)Cn1nc(-c2ccc(Cl)cc2)c2c(N)ncnc21`: the max response reads like this: under setting [1], 80.5%; under setting [4], 98.9%. In addition, the AC50 runs as follows: under setting [2], 12.6 µM [rising, partial curve, poor fit]; under setting [3], 12.6 µM [rising, partial curve, poor fit].
On to `CCCN(C/C=C\I)[C@@H]1CCc2cccc(O)c2C1`, for which the max response reads like this: under setting [1], 69.6%; under setting [4], 72.8%. Moreover, the AC50 by setting is: under setting [2], 35.5 µM [rising, partial curve, poor fit]; under setting [3], 31.6 µM [rising, partial curve, poor fit].
`CN1CCN(c2ncc3nc(-c4cn(C)c5ccccc45)c(=O)n(-c4ccccc4)c3n2)CC1`: the max response by setting is: under setting [1], 30.7%; under setting [4], 29.4%. Further, the AC50 by setting is: under setting [2], 1.58 µM [rising, partial curve]; under setting [3], 0.708 µM [rising, full curve, poor fit].
With `Cc1nc2cnc(Oc3ccccc3)nc2n(-c2ccccc2)c1=O`, the max response runs as follows: under setting [1], 39.7%; under setting [4], 47.2%. The AC50 is, setting by setting: under setting [2], 8.91 µM [rising, full curve, poor fit]; under setting [3], 7.94 µM [rising, partial curve].
`COc1ncc2nc(-c3cccs3)c(=O)n(CCC#N)c2n1`: the max response was 36.1% under setting [1] and 44.5% under setting [4]. Moreover, the AC50 is 28.2 µM [rising, partial curve, poor fit] under setting [2] and 25.1 µM [rising, partial curve, poor fit] under setting [3].
Take `COc1ccc(-n2c(=O)c(-c3cn(C)c4ccccc34)nc3cncnc32)cc1`: the max response under setting [1] was 28.4% and the max response under setting [4] came out at 37.2%. The AC50 is, setting by setting: under setting [2], 0.562 µM [rising, full curve, poor fit]; under setting [3], 0.562 µM [rising, partial curve, poor fit].
Regarding `COc1ccccc1CNc1ccnc(-c2cccc(C#N)c2)n1`, the max response turned out to be 29.4% under setting [1] and 41% under setting [4]. Also, the AC50 under setting [2] was 0.282 µM [rising, full curve] and the AC50 under setting [3] was 0.282 µM [rising, full curve].
`CC(=O)NCCNc1ncnc2ccc(-c3ccccc3C#N)cc12`: the max response runs as follows: under setting [1], 26%; under setting [4], 32.2%. Besides, the AC50 runs as follows: under setting [2], 1.12 µM [rising, full curve, poor fit]; under setting [3], 1.12 µM [rising, full curve].
`COc1cccc(Nc2ncc3nc(CCc4ccccc4)c(=O)n(CCC#N)c3n2)c1`: the max response is -3% under setting [1] and 0.615% under setting [4]. The half-maximal activity concentration (AC50) is 0.01 µM [rising, full curve, poor fit] under setting [2] and 0.0891 µM [rising, full curve, poor fit] under setting [3].
In the case of `CCCn1c(=O)c(C)cn2nc(N)nc12`, the max response runs as follows: under setting [1], 91.9%; under setting [4], 126%. Further, the AC50 reads like this: under setting [2], 4.47 µM [rising, full curve, poor fit]; under setting [3], 15.8 µM [rising, partial curve].
For `O=c1c(-c2ccccc2)nc2cnc(N3CCOCC3)nc2n1-c1ccccc1`, the max response was 20.5% under setting [1] and 18.4% under setting [4]. The AC50 under setting [2] is 0.0355 µM [rising, full curve, poor fit] and the AC50 under setting [3] is 0.282 µM [rising, full curve, poor fit].
`COc1ccccc1CCn1c(=O)cnc2cncnc21`: the max response amounted to 10.1% under setting [1] and 10.8% under setting [4]. Also, the AC50 reads like this: under setting [2], 0.562 µM [rising, full curve]; under setting [3], 0.631 µM [rising, full curve, poor fit].
As to `COc1ncc2nc(C)c(=O)n(-c3ccccc3)c2n1`, the max response came out at 43.7% under setting [1] and 50.5% under setting [4]. The AC50 was 11.2 µM [rising, partial curve, poor fit] under setting [2] and 8.91 µM [rising, partial curve] under setting [3].
Regarding `COc1ccc2[nH]c(=O)c3c(c2c1)OC(C)(C)C=C3`, the max response runs as follows: under setting [1], 108%; under setting [4], 133%. The AC50 under setting [2] was 5.01 µM [rising, full curve] and the AC50 under setting [3] was 4.47 µM [rising, full curve].
On to `O=C(c1ccncc1)N1CCC[C@@]2(CCN(Cc3ccccc3)C2)C1`, for which the max response under setting [1] was 30.2% and the max response under setting [4] amounted to 30.5%. Further, the AC50 under setting [2] was 15.8 µM [rising, partial curve, poor fit] and the AC50 under setting [3] is 0.0316 µM [rising, full curve, poor fit].
For the compound `COc1ccc(-n2c(=O)c(-c3cccs3)nc3cnc(Oc4ccccc4)nc32)cc1`, the max response by setting is: under setting [1], 10.2%; under setting [4], 8.33%. The AC50 runs as follows: under setting [2], 7.08 µM [rising, single point]; under setting [3], 7.94 µM [rising, single point].
For the compound `CN1CCN2c3ncccc3Cc3ccccc3C2C1` (stereo unspecified), the max response amounted to 37.8% under setting [1] and 39.6% under setting [4]. Further, the AC50 was 39.8 µM [rising, single point] under setting [2] and 39.8 µM [rising, single point] under setting [3].
As for `COc1ccc2[nH]cc(CCNc3nc(-c4c(C)noc4C)nc4ccccc34)c2c1`, the max response under setting [1] is 16.9% and the max response under setting [4] came to 25.6%. The AC50 reads like this: under setting [2], 0.112 µM [rising, partial curve, poor fit]; under setting [3], 0.178 µM [rising, partial curve, poor fit].
As for `Nc1ncnc2c1nc(Br)n2C1OC(CO)C(O)C1O` (stereo unspecified), the max response was 34.6% under setting [1] and 40.5% under setting [4]. In addition, the AC50 is 31.6 µM [rising, partial curve, poor fit] under setting [2] and 25.1 µM [rising, partial curve, poor fit] under setting [3].
In the case of `COCCn1c(=O)c(-c2cc(F)cc(F)c2)nc2cnc(Oc3ccccc3)nc21`, the max response was 22.2% under setting [1] and 30.4% under setting [4]. In addition, the AC50 is, setting by setting: under setting [2], 2 µM [rising, full curve, poor fit]; under setting [3], 1.26 µM [rising, full curve, poor fit].
With `CCCCOC(=O)c1cc2c(cn1)[nH]c1ccccc12`, the max response runs as follows: under setting [1], 38.4%; under setting [4], 46.2%. Also, the AC50 is 0.562 µM [rising, full curve, poor fit] under setting [2] and 0.631 µM [rising, full curve] under setting [3].
With `Cn1c(=O)c(-c2ccc(Cl)cc2)nc2cnc(OCc3ccccc3)nc21`, the max response is, setting by setting: under setting [1], 22.8%; under setting [4], 31.3%. The AC50 under setting [2] was 0.447 µM [rising, full curve, poor fit] and the AC50 under setting [3] was 0.562 µM [rising, full curve].
For `CCCCCCCCCCCCC/C=C\[C@@H](O)[C@@H](N)CO`, the max response is -11.8% under setting [1] and -45.5% under setting [4]. Further, the AC50 is 0.224 µM [falling, partial curve, poor fit] under setting [2] and 10 µM [falling, partial curve, poor fit] under setting [3].
With `CC(=O)c1c(O)c(C)c(O)c2c1OC1=CC(=O)C(C(C)=O)C(=O)[C@@]12C` (stereo partly specified), the max response by setting is: under setting [1], 63.9%; under setting [4], 88.4%. The AC50 is, setting by setting: under setting [2], 31.6 µM [rising, partial curve]; under setting [3], 31.6 µM [rising, partial curve].
Turning to `Cc1c(Cl)cccc1Nc1ccccc1C(=O)O`, the max response is, setting by setting: under setting [1], 35.9%; under setting [4], 67.5%. Moreover, the AC50 is 22.4 µM [rising, partial curve, poor fit] under setting [2] and 31.6 µM [rising, partial curve] under setting [3].
